# Assay results: publication PMC4336329 (PLoS ONE, 2015)
# Screen size: about 310,000 compounds; about 2,200 (0.71%) showed an effect of 50% or more. The effect is printed as a negative number. This is one part of the list.
# Target: human ether-à-go-go-related gene (hERG) potassium channel (human, UniProt Q12809)
# Assay: primary screen, population patch clamp on CHO cells stably expressing hERG
# human ether-à-go-go-related gene (hERG) potassium channel, sequence (Q12809 whole entry, looked up): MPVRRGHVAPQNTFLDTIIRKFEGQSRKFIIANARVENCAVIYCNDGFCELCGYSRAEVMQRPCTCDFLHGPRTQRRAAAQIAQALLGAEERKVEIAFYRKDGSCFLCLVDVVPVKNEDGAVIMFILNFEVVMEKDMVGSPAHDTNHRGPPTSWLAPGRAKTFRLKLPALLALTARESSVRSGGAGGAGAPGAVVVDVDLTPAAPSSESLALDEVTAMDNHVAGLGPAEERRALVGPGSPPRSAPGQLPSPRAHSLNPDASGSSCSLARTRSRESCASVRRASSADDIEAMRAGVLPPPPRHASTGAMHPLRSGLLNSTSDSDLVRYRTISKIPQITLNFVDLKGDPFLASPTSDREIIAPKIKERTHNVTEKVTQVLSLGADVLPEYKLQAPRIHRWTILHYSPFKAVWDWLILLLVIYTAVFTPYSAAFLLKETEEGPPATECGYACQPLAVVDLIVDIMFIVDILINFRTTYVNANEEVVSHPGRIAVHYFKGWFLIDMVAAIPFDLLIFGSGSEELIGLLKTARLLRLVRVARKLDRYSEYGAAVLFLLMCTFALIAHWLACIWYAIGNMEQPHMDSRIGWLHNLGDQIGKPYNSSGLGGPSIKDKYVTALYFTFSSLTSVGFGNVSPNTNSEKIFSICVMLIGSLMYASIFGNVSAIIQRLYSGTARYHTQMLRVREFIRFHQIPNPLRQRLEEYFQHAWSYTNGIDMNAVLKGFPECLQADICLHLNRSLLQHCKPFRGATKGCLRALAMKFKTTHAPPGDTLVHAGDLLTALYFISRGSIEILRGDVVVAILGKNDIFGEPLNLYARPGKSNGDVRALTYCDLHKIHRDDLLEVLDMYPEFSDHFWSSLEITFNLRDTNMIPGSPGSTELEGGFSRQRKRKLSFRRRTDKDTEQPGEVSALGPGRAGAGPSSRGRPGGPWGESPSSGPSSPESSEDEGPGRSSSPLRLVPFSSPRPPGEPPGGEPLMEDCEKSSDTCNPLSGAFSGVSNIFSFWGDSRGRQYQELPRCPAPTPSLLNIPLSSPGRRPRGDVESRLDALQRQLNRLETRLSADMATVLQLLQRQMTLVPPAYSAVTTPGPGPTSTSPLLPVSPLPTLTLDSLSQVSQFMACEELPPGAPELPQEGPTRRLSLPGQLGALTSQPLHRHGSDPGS
row,SMILES,"hERG current change (%, negative = inhibition) at 1uM"
1,CC1CCCN(S(=O)(=O)c2csc(C(N)=O)c2)C1 (centres unmarked),19.1%
2,C=CCc1ccccc1OCCSc1nc2ccc([N+](=O)[O-])cc2s1,13.7%
3,Cc1cc(=O)oc2cc(O[C@@H]3O[C@H](CO)[C@@H](O)[C@H](O)[C@H]3O)ccc12,12.5%
4,CCCCN(C(=O)CSCC(=O)Nc1ccc(OC)cc1)c1c(N)n(CCC)c(=O)[nH]c1=O,11%
5,CCCNC(=O)N1CCCC(C(N)=O)C1 (centres unmarked),8.09%
6,Cc1ccc(C(=O)OCC(=O)Nc2nc(-c3ccccc3)cs2)cc1NC(=O)c1ccco1,1.5%
7,C=CCOc1ccc(/C=C/C(=O)OCC(=O)N2CCCc3ccccc32)cc1,6.24%
8,Cc1ccc(NC(=O)CN2CCN(CCN=CC3=C(O)CC(C)(C)CC3=O)CC2)cc1,5.61%
9,COc1cc(Br)c(C2CC(=O)Nc3cc(OC)c(OC)cc32)cc1OC (centres unmarked),12%
10,Cc1cc(C)c2nc(-c3ccccn3)cc(C(=O)N3CCCC3)c2c1,11.9%
11,COc1ccc(S(=O)(=O)NCC(c2cccnc2)N2CCN(C)CC2)cc1OC (centres unmarked),13.2%
12,N/C(=N\N=C\c1ccc(Br)o1)c1nonc1N,12.4%
13,NC(=O)c1ccccc1N=Cc1cccnc1,5.98%
14,Cc1ccc(-n2c(CNC(=O)c3cccs3)nnc2SCC(=O)NO)cc1,5.89%
15,COc1ccc(CNC(=O)C2CCN(S(=O)(=O)c3cccc4nonc34)CC2)cc1,7.61%
16,Cc1[nH][nH]c(=O)c1C(c1ccc(Br)cc1)c1c(C)[nH][nH]c1=O.Cl,9.75%
17,CC(=O)N1c2c(cc(Br)cc2S(=O)(=O)N2CCOCC2)CC1C (centres unmarked),12.8%
18,Cc1ccc(-n2ncc(C#N)c2/N=C/N(C)C)cc1,16.2%
19,O=C1C(N2CCOCC2)=C(n2nnc3ccccc32)C(=O)c2ccccc21,9.63%
20,OCCCNc1nc(-c2ccc(Cl)cc2)nnc1-c1ccccc1,5.01%
21,O=C1/C(=C/c2cccnc2)SC(=S)N1Nc1ccccc1,13.2%
22,COC(CNC(=O)c1ccc(Cn2c(=S)[nH]c3cc4c(cc3c2=O)OCO4)cc1)OC,8.22%
23,COc1ccc(/C=C(/NC(=O)c2ccccc2)C(=O)NCCCn2ccnc2)cc1OC,15.3%

row,SMILES,"hERG current change (%, negative = inhibition) at 1uM"
1,CCN(CC)CCNC(=O)c1cn(CC)c2ccc(S(=O)(=O)N(C)C)cc2c1=O,14.6%
2,COc1ccc(-c2nn(-c3ccccc3)cc2/C=N/Nc2ccc(Cl)c(C(=O)O)c2)cc1OC,12.1%
3,O=C1NC2(CCCCCC2)C(=O)N1Cc1cccc(Cl)c1,9.54%
4,O=[N+]([O-])c1nn(-c2ccccc2)n(O)c1=NCCc1ccccc1,-2.36%
5,CN(CC1CCCO1)S(=O)(=O)c1ccc(C(=O)Nc2ccc(F)cc2)cc1 (centres unmarked),19.2%
6,CCCOC(=O)c1ccc(NC(=O)c2ccoc2C)cc1,-1.93%
7,CN(C)/C=N/S(=O)(=O)c1ccc(Cl)c(Cl)c1,-10.2%
8,CCOC(=O)N1CCN(/C=C(\C#N)c2nc3ccccc3s2)CC1,-36.7%
9,COC(=O)CCC(=O)OC1(C)C(=O)C2=CN(CC3CC3)C(c3ccc(OC)cc3)=CC2=C(Br)C1=O (centres unmarked),4.39%
10,COc1ccccc1CNC(=O)Cc1c[nH]c2ccccc12,13.4%
11,COc1ccc(-c2csc(NC(=O)CSCc3c(C)noc3C)n2)cc1OC,7.23%
12,Oc1ccc(C[C@@H]2CNCCN2CCC23CC4CC(CC(C4)C2)C3)cc1,-6.61%
13,Nc1ncnc(Nc2ccc(F)cc2)n1,7.65%
14,O=C(COC(=O)Cc1ccccc1)Nc1ccc(Cl)cn1,9.25%
15,Cc1ccc(NS(=O)(=O)c2cccc(C(=O)NNC(=O)NC3CCCCC3)c2)c(C)c1,4.16%
16,CCOC(=O)C1=C(C)OC(N)=C(C(=O)OCC)C12C(=O)Nc1ccc(Br)cc12 (centres unmarked),-0.646%
17,CCCCNC(=O)CN1C(=O)COc2ccc(S(=O)(=O)N3CCCCCC3)cc21,5.74%
18,CC1(C)c2ccccc2N2CC(=O)N(CC(N)=O)C21C (centres unmarked),2.95%
19,O=C(NCc1ccc(Cl)cc1)c1ccc(CS(=O)Cc2cccc(Cl)c2)o1 (centres unmarked),5.33%
20,CCC1=NN(S(=O)(=O)c2ccc(C)cc2)C(O)(C(F)(F)F)C1 (centres unmarked),18.4%
21,CC1(C)C2CCC1(C)C(OC(=O)CCn1ccnc1)C2 (centres unmarked),-7.41%
22,CC(NC(=O)CSC(=S)N1CCCC1)c1ccc(S(N)(=O)=O)cc1 (centres unmarked),9.49%
23,CCOc1cc2[nH]c(=O)n(CCCCC(=O)NCc3ccco3)c(=O)c2cc1OCC,8.99%

row,SMILES,"hERG current change (%, negative = inhibition) at 1uM"
1,CS(=O)(=O)N1CCN(C(=O)c2cc(-c3cccnc3)nc3ccc(Br)cc23)CC1,9.01%
2,Cc1cccc(NC(=S)N2CCN(c3ccc(F)cc3)CC2)c1,-6.29%
3,O=C1C2C3C=CC(C4CC34)C2C(=O)N1Cc1ccccc1 (centres unmarked),18.8%
4,CCOc1ccc(CNC(=O)CCC(=O)n2nc(C)c3ccccc32)cc1,11%
5,COc1ccccc1S(=O)(=O)Nc1cc(C)nn1-c1ccc(C)cc1,11.4%
6,COC(=O)/C=C/C(=O)Nc1ccc(O)c(Cl)c1,1.7%
7,CCOC(=O)c1c(NC(=S)N2CCCCC2)sc2c1CCN(C(=O)OCC)C2,9.2%
8,O=C(CNC(=O)c1cccs1)OCc1c(F)cccc1Cl,12.6%
9,CC1CCCC(C)N1C(=O)COC(=O)c1nn(C)c(=O)c2ccccc12 (centres unmarked),15.3%
10,CN(C)S(=O)(=O)c1cc(C(=O)Nc2ccccc2C(=O)NC2CC2)ccc1Cl,-3.31%
11,CCC(C)c1ccc(NC(=O)N2CCN(C(=O)C3CCCO3)CC2)cc1 (centres unmarked),12.7%
12,Cc1ccc(-c2nc(CSCC(=O)NCc3cccnc3)c(C)o2)cc1,2.19%
13,Cc1cc(C)n2nc(S(=O)(=O)NCCc3ccccc3)nc2n1,8.79%
14,CC(C)Cn1c(N)c(C(=O)COC(=O)c2cc(C3CC3)nc3ccccc23)c(=O)n(C)c1=O,9.29%
15,Nc1c(NCc2ccccc2F)c(=O)[nH]c(=O)n1Cc1ccccc1,5.48%
16,O=C(Cc1ccc(Br)cc1)Nc1ccc2[nH]ncc2c1,18.1%
17,COc1ccc(OCCCC(=O)Nc2ccc3c(c2)OCO3)cc1,-3.12%
18,CS(=O)(=O)N(CC(=O)Nc1cccnc1)c1ccc2c(c1)OCCO2,13.5%
19,COc1ccc2cc(S(=O)(=O)NC3CC(C)(C)NC(C)(C)C3)ccc2c1,-3.14%
20,CCn1c2ccccc2c2cc(NC(=O)CSc3nnc(-c4cccc(Cl)c4)o3)ccc21,9.78%
21,CCN(Cc1ccccc1)C(=O)c1nn(-c2ccc(OC)cc2)c(=O)c2c1c1ccccc1n2C,-3%
22,CC(C)(CNc1ccc(S(=O)(=O)C(F)(F)F)cc1[N+](=O)[O-])N1CCOCC1,9.84%
23,O=S(=O)(Nc1cccc(Br)c1)c1cccc2nsnc12,11.8%

row,SMILES,"hERG current change (%, negative = inhibition) at 1uM"
1,COc1ccc(/C(C)=N/NC(=O)Cc2ccc(Cl)cc2)cc1,11.9%
2,CC1(C)CC(N2CCOCC2)=CC(=[N+]2CCOCC2)C1.[I-],8.12%
3,CC(C)(C)[C@H]1CCC(=O)N([C@H](CC#N)Cc2ccccc2)CC1,5.43%
4,N/C(=N\OC(=O)CCCCCN1C(=O)c2ccccc2C1=O)c1ccccn1,-0.459%
5,CCCCn1c(O)c(/C=C/C=C/C=Nc2ccccc2)sc1=S,27.7%
6,COC(=O)Cc1nnc(NC(=O)c2ccccc2)s1,11.5%
7,CC(C)(CNC(=O)c1sc2cc(F)ccc2c1Cl)N1CCOCC1,-3.73%
8,Cc1cc(C)c(S(=O)(=O)NCc2cccs2)cc1C,-4.26%
9,O=C(Nc1cccc([N+](=O)[O-])c1)C1C2/C=C\CCCCC21 (centres unmarked),13.9%
10,Cc1ccccc1N1C(=O)CC(N(O)c2ccccc2)C1=O (centres unmarked),8.96%
11,NS(=O)(=O)c1ccc(NS(=O)(=O)c2ccc(Br)cc2)cc1,12.5%
12,Cc1ccc(S(=O)(=O)N2CCN(C(=O)COC(=O)c3oc4ccccc4c3C)CC2)cc1,11.1%
13,Cc1ccc(C(=O)NC2CC(C)(C)NC(C)(C)C2)cc1,2.45%
14,COc1ccccc1NC(=O)CSc1nnnn1-c1ccc(F)cc1,8.93%
15,COC(=O)C(C)Oc1ccc(-c2nccc(-c3cccs3)n2)cc1 (centres unmarked),10%
16,CCC(C)[C@H](NC(=O)N1CCN(C)CC1)C(=O)OC (some centres unmarked),14.7%
17,OCCC1CN(Cc2cccn2-c2ncccn2)CCN1C1CCCC1 (centres unmarked),0.978%
18,Cc1nc2sccn2c(=O)c1S(=O)(=O)N1CCN(c2ccccc2)CC1,7.33%
19,O=S1(=O)CCN2C=C(Br)C=C(Br)C2=N1,-1.67%
20,CC1CCCCC1NC(=O)CCn1c(=O)oc2ccccc21 (centres unmarked),-0.537%
